{"source": "PubChem BioAssay AID588453", "about": "(National Center for Advancing Translational Sciences (NCATS), 2011)", "note": "In all, about 390,000 compounds went through this assay and about 4,000 (1%) were called active. Inconclusive results, whose numbers are uncertain, are shown with a selection of clear calls. Calls follow the shape of the dose curve; as a rule, active = well fitted inhibition curve with a large enough effect; inconclusive = small, poorly fitted or top-dose-only effect; inactive = no such curve, though single readings can be large or run the other way. Potencies beside an inconclusive call are fits to weak or partial responses and may not hold up. Some compounds were tested as several samples or in several runs, with calls that do not always agree. % is scaled to controls: 0 for no effect and ±100 for the full control effect; potency is read from the fitted curve at half-maximal effect; tags tell the direction and shape of the fitted curve.", "data": [{"molecular_target": "Thioredoxin reductase 1, cytoplasmic (Rattus norvegicus) (UniProt O89049)", "sequence (O89049 whole entry, looked up)": "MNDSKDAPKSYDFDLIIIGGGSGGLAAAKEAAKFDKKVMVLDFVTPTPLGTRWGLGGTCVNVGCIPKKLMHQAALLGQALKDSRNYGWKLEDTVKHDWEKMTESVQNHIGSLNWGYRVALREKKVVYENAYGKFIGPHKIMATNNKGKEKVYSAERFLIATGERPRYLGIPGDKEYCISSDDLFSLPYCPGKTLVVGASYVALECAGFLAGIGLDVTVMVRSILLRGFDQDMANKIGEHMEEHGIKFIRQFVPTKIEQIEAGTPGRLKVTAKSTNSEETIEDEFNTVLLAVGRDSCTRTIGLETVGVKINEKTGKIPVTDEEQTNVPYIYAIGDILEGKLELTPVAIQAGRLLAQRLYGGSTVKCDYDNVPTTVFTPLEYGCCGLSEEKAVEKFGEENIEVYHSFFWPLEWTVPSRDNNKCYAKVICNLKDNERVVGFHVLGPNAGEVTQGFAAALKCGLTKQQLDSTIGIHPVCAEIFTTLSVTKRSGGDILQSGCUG", "experiment": "qHTS Assay for Inhibitors of Mammalian Selenoprotein Thioredoxin Reductase 1 (TrxR1): qHTS; also: nearly all actives have a fitted effect of over 65% in size", "settings": "recombinant rTrxR1, NADPH fluorescence consumption, selenite substrate; series mostly up to 114 µM; activity change, negative = inhibition: at the top concentration", "how_it_was_run": "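Rat TrxR1 (90 nM in the dispensed reagent) was pre-reduced with 400 uM NADPH for 5 min at room temperature, then incubated with compound for 15 min. After 400 uM selenite was added, NADPH fluorescence (Ex 340/Em 450 nm) was followed for 8 min.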", "values": [{"smiles": "CC(C)Oc1ccc(/C(O)=C2/C(=O)C(=O)N(Cc3cccnc3)C2c2ccco2)cc1", "note": "(stereo unspecified)", "Potency": "inconclusive: 31.6 µM [inhibitor, partial curve, poor fit]"}, {"smiles": "Cc1n[nH]c(=O)c2c(NC(=O)COC(=O)c3cccc(OC(F)F)c3)oc(C)c12", "Potency": "inconclusive: 0.282 µM [inhibitor, full curve, poor fit]"}, {"smiles": "CCn1c(SCC(=O)N/N=C/c2ccc(OC)c(OC)c2)nc2ccccc21", "Potency": "inconclusive: 7.08 µM [inhibitor, single point]"}, {"smiles": "O=C(N/N=C/c1ccc[nH]1)c1cc(-c2ccc(Cl)cc2)nc2ccccc12", "activity change, negative = inhibition": "inactive: 24.2% [at 57.1 µM]"}, {"smiles": "O=C1c2ccccc2NC(c2cccc(O)c2)N1Cc1ccco1", "note": "(stereo unspecified)", "Potency": "inconclusive: 35.5 µM [inhibitor, partial curve]"}, {"smiles": "Cc1ccc(/C=c2/sc3n(c2=O)CCCN=3)o1", "Potency": "inconclusive: 17.8 µM [inhibitor, full curve]"}, {"smiles": "COc1ccc(CCNC(=O)/C=C/c2ccco2)cc1OC", "Potency": "active: 7.94 µM"}, {"smiles": "CC(/C=N/N1C(=O)CSC1=S)=C\\c1ccccc1", "Potency": "inconclusive: 15.8 µM [inhibitor, partial curve, poor fit]"}, {"smiles": "CC(=O)CC(=O)NC1C2CC3CC(C2)CC1C3", "note": "(stereo unspecified)", "Potency": "inconclusive: 79.4 µM [inhibitor, partial curve, poor fit]"}, {"smiles": "O=C1C(=O)N(CCN2CCOCC2)C(c2ccccn2)/C1=C(/O)c1ccc(F)cc1", "note": "(stereo unspecified)", "Potency": "inconclusive: 25.1 µM [inhibitor, partial curve, poor fit]"}, {"smiles": "COc1ccccc1-c1cn[nH]c1-c1ccc(O)cc1O", "activity change, negative = inhibition": "inactive: 14.2%"}, {"smiles": "Cc1cc(Cl)ccc1NC(=S)NCCCO", "Potency": "inconclusive: 15.8 µM [inhibitor, partial curve, poor fit]"}, {"smiles": "Cc1nc(N)nc(N/N=C/c2ccccc2)n1", "Potency": "inconclusive: 79.4 µM [inhibitor, single point]"}, {"smiles": "O=C(Nc1ccc2oc(-c3ccncc3)nc2c1)c1ccco1", "Potency": "inconclusive: 56.2 µM [inhibitor, partial curve, poor fit]"}, {"smiles": "CS(=O)(=O)c1ccc(C(=O)OCC(=O)NCc2cccs2)cc1[N+](=O)[O-]", "Potency": "active: 1.78 µM"}, {"smiles": "O=C(Nc1ccc2nn(-c3ccccc3)nc2c1)c1ccc(Br)o1", "Potency": "inconclusive: 35.5 µM [inhibitor, partial curve, poor fit]"}, {"smiles": "Nc1c(-c2n[nH]c(=S)n2-c2ccc(Cl)cc2Cl)cnn1-c1ccccc1", "Potency": "inconclusive: 5.62 µM [inhibitor, single point]"}, {"smiles": "CCOC(=O)c1sc(=S)n(C)c1NC(=O)c1ccc(F)cc1", "Potency": "inconclusive: 15.8 µM [inhibitor, partial curve, poor fit]"}, {"smiles": "O=C(/C=C/c1ccco1)Nc1nc(-c2ccc(F)c(F)c2)cs1", "Potency": "inconclusive: 79.4 µM [inhibitor, single point]"}, {"smiles": "O=S(=O)(NCc1cc(-c2ccccc2Cl)no1)c1ccc(Cl)cc1", "activity change, negative = inhibition": "inactive: 5.8%"}, {"smiles": "CCN1/C(=C/c2ccc3ccccc3[n+]2CC)C=Cc2ccccc21", "Potency": "inconclusive: 56.2 µM [inhibitor, partial curve, poor fit]"}, {"smiles": "O=c1[nH]c(NCCO)nc2c1C1(CCCC1)Cc1ccccc1-2", "Potency": "inconclusive: 89.1 µM [inhibitor, partial curve, poor fit]"}, {"smiles": "CCN1CCN(C(=O)CCCn2c(C)c3cnn(-c4ccccc4)c(=O)c3c2C)CC1", "Potency": "inconclusive: 28.2 µM [inhibitor, partial curve, poor fit]"}, {"smiles": "COc1ccc(-c2nc(CS(=O)CC(=O)NC3CCCCCC3)c(C)o2)cc1", "note": "(stereo unspecified)", "Potency": "inconclusive: 50.1 µM [inhibitor, partial curve]"}, {"smiles": "O=S(=O)(c1ccc(Cl)cc1)c1cc(O)ccc1O", "Potency": "inconclusive: 25.1 µM [inhibitor, full curve, poor fit]"}, {"smiles": "Cc1cccc(-n2c(=S)[nH]c3c(oc4ccccc43)c2=O)c1", "Potency": "inconclusive: 15.8 µM [inhibitor, full curve]"}, {"smiles": "CCOC(=O)C1=C(O)/C(=C\\c2ccc(CNC(=O)C(=O)Nc3ccccc3)o2)N=C1C", "Potency": "inconclusive: 44.7 µM [inhibitor, single point]"}, {"smiles": "Cc1[nH]nc2c1C(c1ccc(-c3ccccc3C#N)o1)C(C#N)=C(N)O2", "note": "(stereo unspecified)", "Potency": "inconclusive: 3.55 µM [inhibitor, partial curve]"}, {"smiles": "COc1ccccc1C(=O)Nc1ccc2c(c1)nc(CN1CCN(C(C)=O)CC1)n2C", "Potency": "inconclusive: 79.4 µM [inhibitor, single point]"}, {"smiles": "O=C(CSc1n[nH]c(-c2ccccc2)n1)Nc1ncccn1", "activity change, negative = inhibition": "inactive: 0.79% [at 57.1 µM]"}, {"smiles": "CNC(=O)C1CCN(S(=O)(=O)c2c(C)noc2/C=C/N(C)C)CC1", "Potency": "inconclusive: 79.4 µM [inhibitor, single point]"}, {"smiles": "O=C(Nc1ccccc1)c1nc(S(=O)(=O)Cc2ccccc2F)ncc1Cl", "Potency": "inconclusive: 2.51 µM [inhibitor, full curve, poor fit]"}, {"smiles": "CC(=O)N(C)c1ccc(C=C2C=Cc3ccccc32)cc1", "Potency": "inconclusive: 22.4 µM [inhibitor, full curve, poor fit]"}, {"smiles": "Cc1oc(-c2cccs2)nc1CS(=O)CC(=O)NC1CCCCCC1", "note": "(stereo unspecified)", "Potency": "active: 5.01 µM"}, {"smiles": "CCCn1c(=O)c2[nH]c(-c3ccc(S(=O)(=O)O)cc3)nc2n(CCC)c1=O", "Potency": "active: 22.4 µM"}, {"smiles": "Cc1cccc(NC(c2ccccc2C)c2ccc3ccc(C)nc3c2O)n1", "note": "(stereo unspecified)", "Potency": "inconclusive: 7.94 µM [inhibitor, full curve, poor fit]"}, {"smiles": "COc1ccccc1Nc1nc(N)nc(CSC(=S)N2CCC(C)CC2)n1", "activity change, negative = inhibition": "inactive: 8.48% [at 57.1 µM]"}, {"smiles": "CCOC(=O)c1c(NC(=O)COC(=O)CCOc2ccccc2C)sc(C(=O)NC)c1C", "Potency": "inconclusive: 50.1 µM [inhibitor, partial curve, poor fit]"}, {"smiles": "CCCSc1oc(-c2ccco2)nc1S(=O)(=O)c1ccc(Br)cc1", "Potency": "inconclusive: 25.1 µM [inhibitor, partial curve, poor fit]"}, {"smiles": "CN(C)CC/C=C1\\c2ccccc2COc2ccccc21", "Potency": "active: 31.6 µM"}, {"smiles": "COc1ccc([N+](=O)[O-])cc1NC(=S)NC(=O)C(C)(C)C", "Potency": "inconclusive: 22.4 µM [inhibitor, full curve, poor fit]"}]}]}
